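Interpolation was linear, between the two tested concentrations surrounding the appropriate level; five concentrations were tested over 48 hours in 96-well plates. GI50 = concentration required for 50% inhibition of growth. TGI: concentration producing complete growth inhibition.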

The test has as its system NCI-H322M lung. Put plainly: NCI-60 cell line screen, 48 h.
In the case of `COc1ccc(Cn2c3ccc([N+](=O)[O-])cc3c(=O)n2Cc2ccccn2)cc1`, the TGI was greater than 100 µM. As to `CN(C)C(=S)/N=c1\ss/c(=N\C(=S)N(C)C)n1Cc1ccco1`, the TGI is greater than 100 µM.

Take `Nc1nccc2c1ccn2-c1cccc(NC(=O)c2ccc(N3CCOCC3)c(C(F)(F)F)c2)c1`: the GI50 was 1.8 µM and the TGI is greater than 50 µM.

As for `CCCCCCCCNC(C)C(O)c1ccc(SC(C)C)cc1` (stereo not given), the GI50 is 11.7 µM and the TGI was found to be 24.7 µM.

On to `Cc1ccc(N=C2SC(=NN(C)C)SC2=Nc2ccc(C)cc2)cc1`, for which the TGI was greater than 100 µM.

For `O=c1c2c(=NCCN3CCCC3)cc3c(=O)n(CCCN4CCOCC4)c(=O)c4ccc(c(O)n1CCCN1CCOCC1)c2c4-3`, the GI50 is 0.0737 µM and the TGI amounted to 0.683 µM.

In turn, `O=C(Nc1ccc(Sc2ccc(N=Nc3c(O)c(S(=O)(=O)O)cc4cc(S(=O)(=O)O)ccc34)cc2)cc1)c1ccc(N=Nc2c(O)c(S(=O)(=O)O)cc3cc(S(=O)(=O)O)ccc23)cc1` showed a TGI greater than 100 µM. Turning to `COc1cccc([C@@H]2CC(=O)c3cc4c(cc3N2)OCO4)c1`, the TGI was greater than 100 µM. On the same count and under the same terms, as for `Cn1c(COC(=O)NC2CCCCC2)c(COC(=O)NC2CCCCC2)c2ccc3cc(C=O)ccc3c21`, the figure is greater than 100 µM. The same measure, in the same setting: as for `O=NN1C(c2ccccc2)CCCC1c1ccccc1` (stereo not given), the figure is greater than 100 µM. Turning to `CCCCCCCCCCC[C@@H](C[C@H]1OC(=O)[C@H]1CCCCCC)OC(=O)[C@@H](CC(C)C)NC=O`, the GI50 is 56.3 µM and the TGI was greater than 100 µM. Taken in the same sequence, the figures for `COc1ccc(-n2cc(-c3cc(OC)c(OC)c(OC)c3)[nH]c2=S)cc1Cl` were 54.4 µM and greater than 100 µM.

Regarding `Oc1ccc(Oc2cnc3cc(Cl)ccc3n2)cc1`, the GI50 is 66.2 µM and the TGI is greater than 100 µM. `CN(C)CC1CCCCCC(Br)C1=O` (stereo not given) had a TGI greater than 100 µM. Still for that read-out and setting: as for `COC12C=CC(CC1)C(C)(C)C2OS(C)(=O)=O` (stereo not given), the figure is greater than 100 µM. Same read-out and setting: the result for `O=c1[nH]c(=O)n(COCc2ccccc2)c2ccccc12` reads greater than 100 µM; that for `CC1=NN(C(=O)Cc2ccccc2)C(=O)/C1=C\c1ccccc1O`, greater than 100 µM. Regarding `CNc1ccc([N+](=O)[O-])c2c(NCCCN(C)C)ccnc12`, the TGI is greater than 100 µM. For `CC(C)=CC(=O)N[C@@H]1CC2CCC3C(CC[C@@]4(C)C3CC[C@@H]4C(C)N(C)C)[C@@]2(C)C[C@@H]1O` (stereo not given in full), the GI50 is 4.95 µM and the TGI turned out to be 41.6 µM. Taken in the same sequence, the figures for `COc1cnc2c(c1)C(=O)c1c-2n(CCCNCCN2CCOCC2)c(=O)c2cc([N+](=O)[O-])ccc12` were 0.279 µM and 1.71 µM. As for `Cc1c2oc3c(C)cc(F)c(C(=O)NC4C(=O)NC(C(C)C)C(=O)N5CCCC5C(=O)N(C)CC(=O)N(C)C(C(C)C)C(=O)OC4C)c3nc-2c(C(=O)NC2C(=O)NC(C(C)C)C(=O)N3CCCC3C(=O)N(C)CC(=O)N(C)C(C(C)C)C(=O)OC2C)c(N)c1=O` (stereo not given), the GI50 was 0.119 µM.

Take `COc1cc(/C=C/C(=N\NC(=S)NN)c2sc(NNC(C)=O)nc2C)ccc1O`: the TGI is greater than 100 µM. On to `CCOC(=O)c1ccccc1SC(C[N+](=O)[O-])c1ccccc1` (stereo not given), for which the GI50 is 15.9 µM and the TGI was 30.4 µM. Taken in the same sequence, the figures for `Clc1ccc2nc(Cl)c3ccccc3c2c1` were 5.54 µM and 43 µM. Taken in the same sequence, the figures for `COc1ccc(-c2nc(-c3ccccn3)c(-c3ccccn3)n2CC(C)C)cc1OC1CCCC1` were 21.4 µM and greater than 165 µM. For `CC1CCOc2ccc(cc2)C=Nc2ccc(cc2)-c2ccc(cc2)N=Cc2ccc(cc2)OCC1` (stereo not given), the TGI was greater than 100 µM.

Molecule `CCC(C)c1cccc(C)c1NC(=O)C(=O)Cc1nc2ccccc2s1` (stereo not given) returned a TGI greater than 100 µM. `O=C1/C(=C/c2ccc(Cl)cc2)CN(C(=O)CCN2CCC(=NO)CC2)C/C1=C\c1ccc(Cl)cc1`: the GI50 is 1.52 µM and the TGI stood at 2.93 µM. `O=C1CCNC(=O)NC1` had a TGI greater than 100 µM. Turning to `O=C1CC(c2ccsc2)c2snc(-c3ccc(Cl)cc3)c2N1` (stereo not given), the GI50 is 5.9 µM and the TGI is greater than 100 µM.

For `O=C(CSCC(=O)N/N=C\c1ccccc1F)N/N=C\c1ccccc1F`, the TGI was greater than 100 µM.

As for `Cc1ccc2c(=O)cc(Cc3csc4ccccc34)[nH]c2n1`, the TGI was greater than 100 µM.

Take `O=C(Nc1ccc(Nc2ccncc2)cc1)c1ccc(Nc2ccnc3ccc([N+](=O)[O-])cc23)cc1[N+](=O)[O-]`: the GI50 was 28.5 µM and the TGI is greater than 95.7 µM. `O=C1CCCC(O)=C1SC1=C(O)CCCC1=O` yielded a TGI greater than 100 µM.

In the case of `Cc1cn([C@@H]2C[C@H](CO)[C@@H]2O)c(=O)[nH]c1=O`, the TGI is greater than 100 µM. Still for that read-out and setting: the result for `S=C(N/N=C(\C(=N/NC(=S)N1CCCCC1)c1ccccn1)c1ccccn1)N1CCCCC1` reads greater than 100 µM. As to `CCOC(=O)c1ccc(N(C=O)CCC(=O)CCl)cc1`, the GI50 is 6.37 µM and the TGI came out at 20 µM. For `Nc1ccccc1OCCCOc1ccccc1N`, the TGI was greater than 100 µM.

With `CCC(=O)N1C(=O)C(CC)(CC)C(=O)N1C(=O)CC`, the TGI was greater than 100 µM. The same measure, in the same setting: as for `CCOC(=O)C1=C(c2ccccc2)C12N(Cc1ccccc1)C(=O)C2(c1ccccc1)c1ccccc1` (stereo not given), the figure is greater than 100 µM; as for `OCC(O)COc1c(Cl)cc(Cl)cc1Cl` (stereo not given), greater than 100 µM; as for `COc1ccc([C@H]2c3cc4c(cc3OC(O)(CO)[C@H]2C(=O)O)OCO4)c(OC)c1` (stereo not given in full) (tested in a mixture with another compound), greater than 100 µM. On the same count and under the same terms, as for `Cc1ccc(NC(=O)/C(=N/NC(=O)C[N+](C)(C)C)c2nc3ccccc3[nH]c2=O)cc1`, the figure is greater than 100 µM.

Regarding `O=C(c1ccccc1)c1c(C(F)(F)F)n([O-])c2cc(F)c(F)cc2[n+]1=O`, the GI50 was 5.47 µM.

Molecule `CC(=O)OCC1OC(SC2=NC(=O)/C(=C/c3ccccc3)S2)C(OC(C)=O)C(OC(C)=O)C1OC(C)=O` (stereo not given) gave a TGI greater than 100 µM. Regarding `Cc1cc(NCc2cc(Nc3ccnc4cc(Cl)ccc34)ccc2F)nc(N2CCSCC2)n1`, the GI50 was 2.16 µM and the TGI was 7.75 µM. Molecule `CC(C)CN1CC(C)C(=O)NC1=O` (stereo not given) returned a TGI greater than 100 µM.

Take `CC(C)C[CH2][Ge]([CH2]CC(C)C)([CH2]CC(C)C)[CH2]CC(C)C`: the GI50 was greater than 100 µM and the TGI is greater than 100 µM. `COc1cc(/C(=C2/O[C@@H]([C@H]3COC(C)(C)O3)[C@H]3OC(C)(C)O[C@@H]23)c2ccc3c(c2)OCO3)cc(OC)c1OC`: the GI50 is greater than 25 µM and the TGI is greater than 25 µM.

`O=C1/C(=C/c2ccc(Cl)cc2)CCC1CN1CCOCC1` (stereo not given): the TGI was 45.2 µM. On to `O=C1NC(=O)[C@@H](c2c[nH]c3ccccc23)[C@@H]1c1c[nH]c2ccccc12`, for which the GI50 was greater than 25 µM and the TGI is greater than 25 µM. Turning to `CC1(C)CN=CC(C)(OCc2ccccc2)C(=O)NC(C)(C)CN=CC(C)(OCc2ccccc2)C(=O)N1` (stereo not given), the TGI was greater than 10 µM. Still for that read-out and setting: the result for `CN1C(=O)CCC1c1ccc2c(c1)oc(=O)n2C` (stereo not given) reads greater than 100 µM. As for `O=C(CCN1CCCC1)Nc1ccc2c(NCCc3ccccc3)c3ccccc3nc2c1`, the GI50 was 0.447 µM and the TGI is 2.02 µM. Consider `COC1C(CO)OC(n2c3c(Cl)cccc3c3c4c(c5c6cccc(Cl)c6[nH]c5c32)C(=O)NC4=O)C(O)C1O` (stereo not given), for which the TGI was determined as 25.3 µM. `CC(=O)Nc1ccc(-c2csc(Nc3cccc(-c4csc(-c5ccccc5)n4)c3)n2)cc1`: the GI50 is greater than 50 µM and the TGI is greater than 50 µM.

Molecule `N#Cc1c(N2CCCC2)nsc1Nc1ccc(F)cc1` came in with a TGI greater than 100 µM. Still for that read-out and setting: the result for `CC(=O)N1C(Nc2cccc3nc(C)ccc23)CCN1c1ccccc1` (stereo not given) reads greater than 10 µM. Still for that read-out and setting: as for `ClC1c2ccccc2C2(c3ccccc3)OOC1(c1ccccc1)O2` (stereo not given), the figure is 17.8 µM. As to `CC[C@H](C)[C@H](NC(=O)NC(C)(C)C)C(=O)N(C)[C@H](C[C@@H](OC(C)=O)c1nc(C(=O)N[C@@H](Cc2ccccc2)C[C@H](C)C(=O)OC)cs1)C(C)C`, the GI50 was 1.31 µM and the TGI is greater than 25 µM. The molecule `CN(C)c1ccc2cc3ccc(N(C)C)cc3nc2c1` returned a TGI of 14.2 µM. The same measure, in the same setting: as for `Cc1c2cccc-2c(OCCOC(=O)n2ccnc2)cc2c1[nH]c1ccccc12`, the figure is 24.5 µM. Same read-out and setting: as for `COc1cc([C@@H]2c3cc4c(cc3[C@@H](c3c(O)cc(O)c5c3O[C@H](c3ccc(O)c(O)c3)[C@H](OC(=O)c3cc(O)c(O)c(O)c3)C5)[C@H]3COC(=O)[C@H]23)OCO4)cc(OC)c1O`, the figure is greater than 100 µM. `OC(C1CCCCCCCCCC1)C(O)C1CCCCCCCCCC1` (stereo not given) gave a TGI greater than 100 µM. Still for that read-out and setting: as for `O=C(c1ccccc1O)c1cc(-c2ncc3c(=O)c4ccccc4oc3n2)c(-c2ccccc2O)[nH]c1=O`, the figure is greater than 100 µM. The same measure, in the same setting: the result for `CCOC1NC(/N=C/c2ccc(OC)cc2)=C(C#N)C1C#N` (stereo not given) reads greater than 100 µM.

Take `COc1ccc(-c2nnc(SCC(=O)Nc3ccc(C(=O)/C=C/c4cc(OC)c(OC)c(OC)c4)cc3)n2-c2ccccc2)cc1OC`: the GI50 is greater than 10 µM and the TGI is greater than 10 µM.

Take `COc1ccc(C(=O)/C=C/c2cc(-c3ccc4c(c3)OCO4)n[nH]2)cc1OC`: the GI50 was 2.48 µM and the TGI was determined as 7.3 µM. Taken in the same sequence, the figures for `COc1ccc(/C=N\NC(=O)c2ccc3nc(-c4ccc(Cl)cc4)[nH]c3c2)cc1` were 2.49 µM and 7.2 µM. With `CS(=O)(=O)OCC1CCCCCCCCCCC12SCCCS2` (stereo not given), the TGI is greater than 100 µM. The same measure, in the same setting: the result for `CC#CC#C/C=C1\C=CC2(OC=CC2OC(C)=O)O1` (stereo not given) reads greater than 100 µM.

`O=C(NO)c1ccc(Cn2c(=O)n(-c3ccccc3)c(=O)c3ccccc32)cc1`: the GI50 was 1.65 µM and the TGI was found to be 7.22 µM. Molecule `CO[C@]12CC(=O)C3(C(C[C@H]4CC5CC[C@H]6C[C@@H](OC(C)=O)CC[C@]6(OC(C)=O)C5C[C@@]43C)C1)C1C[C@H]3[C@@H]4CC[C@H]5C[C@@H](OC(C)=O)CC[C@]5(OC(C)=O)[C@H]4CC[C@]3(C)C12` (stereo not given in full) registered a TGI greater than 100 µM. As to `O=C(/C=C/c1ccccc1)Oc1cccc(Br)c1`, the TGI is greater than 100 µM.

Consider `NC(CCc1ncc(-c2ccccc2)s1)C(=O)O` (stereo not given), for which the TGI is greater than 100 µM. Same read-out and setting: the result for `CC(C)(C)OC(=O)n1c(Cl)c(C=O)c2ccccc21` reads 40.6 µM. The same measure, in the same setting: as for `Cc1cn([C@H]2C[C@H](O)[C@@H](CO)O2)c(=O)nc1N`, the figure is greater than 100 µM; as for `COc1ccc(C2=C(Cl)c3cc(OC)c(OC)cc3C2)cc1OC`, greater than 100 µM. On the same count and under the same terms, the result for `CC(=O)c1[nH]c(Nc2ccc(C)cc2)c(C(=S)Nc2ccccc2)c1N` reads 40.7 µM.

For the origin of these results see PubChem BioAssay (NCI).
